Measurements: ChEMBL document CHEMBL5308541, “MAIP: An Open-Source Tool to Enrich High-Throughput Screening Output and Identify Novel, Druglike Molecules with Antimalarial Activity” (ACS Med Chem Lett, 2023)
Among all 150,000 compounds or so, about 540 (0.36%) showed an effect of 50% or more. This is one part of the list.

The compounds below were run on Plasmodium falciparum (assay: Primary screen in NF54 nanoGlo assay, in single point, at 2uM, 72h; a lower Z score goes with more inhibition). Conditions: timepoint 72 hour.
Assay type: functional, Erythrocyte
With `O=S(=O)(Nc1cccc(N2CCC(N3CCN(c4ccccn4)CC3)CC2)c1)c1ccc(F)cc1` the “% Inhibition” value was 1% and the Z score was -0.23. In the case of `CCN(Cc1ccc2[nH]ccc2c1)C(=O)c1nn(-c2ccccc2F)cc1O`, the “% Inhibition” value is reported as -10% and the Z score is reported as 1.68. With `O=C(c1ccnc(-c2ccc(Cl)cc2)n1)N1CCOCC2(CCOCC2)C1` the “% Inhibition” value was 0% and the Z score was 0.01. With `CO[C@H](c1nc(-c2cnc(C3CCCC3)nc2N)no1)C1CC1` the “% Inhibition” value was -5% and the Z score was 1.07. In the case of `Cc1ncsc1CNc1ccc(C(=O)N2CCOCC2)c(F)c1`, the “% Inhibition” value is reported as -2% and the Z score is reported as 0.24. `CN1CCN(C2COCC2NC(=O)CC2CCNCC2)CC1` (centres undefined) was tested, and the “% Inhibition” value was 1% and the Z score was -0.2. For `COC[C@H](C)C1CCN(S(=O)(=O)C(C)C)CC1`, the “% Inhibition” value was 1% and the Z score was -0.13. For `Cc1c[nH]c(CN(C)C(=O)[C@H]2CCCN(C3CCN(CCc4ccccc4)CC3)C2)n1`, the “% Inhibition” value was 10% and the Z score was -1.73. For `CN(Cc1cc(-c2ccncc2)no1)c1ncnc2[nH]ccc12`, the “% Inhibition” value was -13% and the Z score was 2.74. For `CCNc1ccnc(N[C@@H](C)c2nc3ccccc3[nH]2)n1`, the “% Inhibition” value was -10% and the Z score was 1.76. For `COCCOCCCCNc1cnc2cc(F)c(F)cc2n1`, the “% Inhibition” value was -10% and the Z score was 1.96. With `N#CC[C@@H](O)CN1CCCC(CN2CCN(c3ccccn3)CC2)C1` (some centres undefined) the “% Inhibition” value was -9% and the Z score was 1.53. In the case of `CC(C)(C)c1cc(C(=O)N2C[C@H]3CCC[C@@]3(c3nc(Cc4ccccc4)no3)C2)[nH]n1`, the “% Inhibition” value is reported as -9% and the Z score is reported as 1.62. `Cc1ncc(CN(C)C(=O)[C@@H](NC(N)=O)C(C)(C)C)s1` was tested, and the “% Inhibition” value was -4% and the Z score was 0.63. In the case of `CN(C)CCN(Cc1cccc2cnccc12)C[C@H]1CCCN(Cc2ccccc2F)C1`, the “% Inhibition” value is reported as -4% and the Z score is reported as 0.72. `CCn1c(-c2cnccn2)nnc1N1CCO[C@H](C(C)C)C1` was tested, and the “% Inhibition” value was 8% and the Z score was -1.77. For `O[C@@]1(CN2CCN(CCc3ccccc3)CC2)CCCNCC1`, the “% Inhibition” value was 11% and the Z score was -2.24. `OC1CCN(c2ccnc(NC[C@@H](c3ccccc3)N3CCCCCC3)n2)CC1` was tested, and the “% Inhibition” value was 5% and the Z score was -0.92. With `c1cc(N2CCN(c3nccc(N[C@H]4CCCOC4)n3)CC2)c2cc[nH]c2c1` the “% Inhibition” value was 6% and the Z score was -0.99. For `c1cc2c(cc1CCN1CCCN(CC3CCCCC3)CC1)OCCO2`, the “% Inhibition” value was -5% and the Z score was 1.06. For `CC[C@H]1CN(C(=O)CN(C)C)CC(=O)N[C@H](C)C(=O)N[C@@H](CC(C)C)C(=O)N[C@@H](Cc2ccccc2)C(=O)N1`, the “% Inhibition” value was -6% and the Z score was 1.4. With `CO[C@H]1C[C@@H](CN2CCCC2)N(c2ncnc3[nH]ccc23)C1` the “% Inhibition” value was 4% and the Z score was -0.78. For `Cc1cc(N[C@H]2CCOC2)c2ccc(C(F)(F)F)cc2n1`, the “% Inhibition” value was -3% and the Z score was 0.66. `CCc1cc(NCc2cccc(CN3CCCC3)c2)ncn1` was tested, and the “% Inhibition” value was 0% and the Z score was 0.03. `Nc1cc(-c2cc(F)cc3sc(N)nc23)c2cc[nH]c2n1` was tested, and the “% Inhibition” value was -4% and the Z score was 0.87. With `Oc1cccc2c1CCC[C@@H]2NCc1ccc2occc2c1` the “% Inhibition” value was 32% and the Z score was -5.46. With `CN1CCCN(CCCNC(=O)c2ccnc(-n3cccn3)c2)CC1` the “% Inhibition” value was -6% and the Z score was 0.92. With `COc1ccc(CCN2CCC(CNS(=O)(=O)c3cc(-c4cc(C)no4)ccc3OC)CC2)cc1` the “% Inhibition” value was -5% and the Z score was 0.8. For `CCN1CCOC(CNS(=O)(=O)Cc2cc(C)no2)C1c1ccccc1` (centres undefined), the “% Inhibition” value was -2% and the Z score was 0.37. With `NC(=O)CN1CCC[C@H](C(=O)N(CCc2c[nH]c3ccccc23)Cc2cccnc2)C1` the “% Inhibition” value was 0% and the Z score was 0.01. In the case of `c1ccc(CN2CCN(CCN3CCC[C@@]4(CCNC4)C3)CC2)cc1`, the “% Inhibition” value is reported as 6% and the Z score is reported as -1.39. With `Nc1nccnc1C(=O)Nc1ccccc1N1CCC(O)CC1` the “% Inhibition” value was -18% and the Z score was 3.16. `c1cc(CNC2CCN(C[C@H]3CCOC3)CC2)c2cc[nH]c2c1` was tested, and the “% Inhibition” value was 34% and the Z score was -5.22. For `Cc1nn(C(=O)c2c[nH]c3ccccc23)c(N)c1-c1ccccc1`, the “% Inhibition” value was -4% and the Z score was 0.69. `CC(C)(C)NC(=O)N1CCC(CNc2ncnc3ccc(Cl)cc23)CC1` was tested, and the “% Inhibition” value was 0% and the Z score was 0.05. For `Cc1ccc2cc(CNC(C)C3CN(C)CCN3C)ccc2n1` (centres undefined), the “% Inhibition” value was 2% and the Z score was -0.3. With `CC1CN(c2ccc(CNC(=O)c3cc(-c4ccco4)[nH]n3)cn2)CC(C)O1` (centres undefined) the “% Inhibition” value was -3% and the Z score was 0.52. `Cn1c(CNC2CC(C)(C)NC(C)(C)C2)nc2cc(C(F)(F)F)ccc21` was tested, and the “% Inhibition” value was -6% and the Z score was 0.95. With `c1ccc(CN2CC3CCCCC(NCc4ccnc(OC5CCOC5)c4)C3C2)cc1` (centres undefined) the “% Inhibition” value was -7% and the Z score was 1.2. `O=C(NCCc1ccccc1)[C@H]1CCCN(C2CCN(c3ncnc4[nH]ccc34)CC2)C1` was tested, and the “% Inhibition” value was -3% and the Z score was 0.58. For `CN1CCCN(C[C@H]2CCCN2Cc2ccccc2)CC12CCNCC2`, the “% Inhibition” value was 12% and the Z score was -1.77. In the case of `COc1ccc2oc([C@H](C)NC(=O)c3cnc4[nH]c(=O)[nH]c4c3)c(C)c2c1`, the “% Inhibition” value is reported as 3% and the Z score is reported as -0.39. In the case of `NC(=O)c1ccccc1OCC#CCNC(=O)C(=O)c1c[nH]c2ccccc12`, the “% Inhibition” value is reported as -14% and the Z score is reported as 2.43. For `CN(C[C@H]1COCCO1)C(=O)CCCC(=O)c1ccccc1`, the “% Inhibition” value was -4% and the Z score was 0.88. For `CC1(C(=O)NCC(c2ccccc2)c2c[nH]c3ccccc23)Cc2ccccc2C(=O)O1` (centres undefined), the “% Inhibition” value was -2% and the Z score was 0.26. `Nc1nc(NCCc2nccc(-c3ccccc3)n2)cc(C2CC(N)C2)n1` (centres undefined) was tested, and the “% Inhibition” value was 3% and the Z score was -0.6. For `Cc1ccccc1[C@@H]1c2[nH]c3ccccc3c2CCN1C(=O)c1ccc2c(c1)C(=O)N(C)C2=O`, the “% Inhibition” value was -5% and the Z score was 0.79. In the case of `Clc1cc(Cl)c2nc(Cc3nc(-c4c[nH]c5ncccc45)cs3)cn2c1`, the “% Inhibition” value is reported as -3% and the Z score is reported as 0.52. With `CC1CN(c2ccc(NC(=O)c3cc4cc(F)ccc4[nH]3)cn2)CC(C)O1` (centres undefined) the “% Inhibition” value was 4% and the Z score was -0.67. In the case of `OC[C@H](CN1CCCCC1)Nc1cc(C(F)(F)F)nc(-c2ccncc2)n1`, the “% Inhibition” value is reported as 5% and the Z score is reported as -0.76. `CCn1ccnc(N(C)CC(C)(C)O)c1=O` was tested, and the “% Inhibition” value was -8% and the Z score was 1.68. In the case of `CCOc1cc(C(=O)N(CC)c2ccc3[nH]ccc3c2)ccc1OCc1ccncc1`, the “% Inhibition” value is reported as 3% and the Z score is reported as -0.67.
